{"source": "the supplement of paper PMC11417369", "note": "The other results are listed elsewhere or left out.", "data": [{"test_system": "PfSIP2 AP2 domain 1 (GST-tagged)", "assay": "gcPBM binding intensity (ln(normalized median fluorescence intensity)); higher = stronger DNA binding", "outline": "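The highest Masliner-normalised natural-log median intensity across replicate spots of either probe orientation is reported as binding intensity. GST-tagged P. falciparum DNA-binding domains expressed in E. coli were applied for 1 h to an Agilent 4 × 180k array of primer-extended double-stranded 36-bp intergenic genomic probes plus negative controls, and bound protein was detected with Alexa488 anti-GST antibody and scanned at 488 nm.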", "values": [{"sequence": "GTATACATATTTATAATAATAAATGTCTTATATTTT [CACACA_negctrl_site688]", "gcPBM binding intensity (ln)": 6.88}, {"sequence": "TAATATATTAATATATGTACGTATTTTTATTAATAT [XGTACX_site5346]", "gcPBM binding intensity (ln)": 7.32}, {"sequence": "TTAAATAATTCTTTTAGTACACACGAATAAGCAGAT [XGTACX_site623]", "gcPBM binding intensity (ln)": 7.37}, {"sequence": "TATCTTATATATAAGTGTACGCAGATTCTTACGATA [XGTACX_site6058]", "gcPBM binding intensity (ln)": 7.8}, {"sequence": "ATATATATATATATATGTACATATGTCAACTGTCTA [XGTACX_site8636]", "gcPBM binding intensity (ln)": 9.49}, {"sequence": "CATACATACAAACACACACACATATATATACATACA [CACACA_site852]", "gcPBM binding intensity (ln)": 7.45}, {"sequence": "ATATATCAAATAGACAAACACACAAAGGAAGAGTGA [CACACA_site3922]", "gcPBM binding intensity (ln)": 7.02}, {"sequence": "TATGTATTAATGAGAACATGCAAAATAATAAACAAT [TGCATGCA_site362]", "gcPBM binding intensity (ln)": 7.24}, {"sequence": "CACAGACACGGACACACACACACACCCAGACACATA [CACACA_site4357]", "gcPBM binding intensity (ln)": 7.18}, {"sequence": "CATATACACGAACACACACACACACGCACAAAAAAA [CACACA_site6376]", "gcPBM binding intensity (ln)": 7.69}, {"sequence": "AATAATATATGGACATGTACATAATATATATTTTTT [XGTACX_site312]", "gcPBM binding intensity (ln)": 7.02}, {"sequence": "TTCATATAATTCATCTGTACATATTGATAGTATGCA [XGTACX_site6386]", "gcPBM binding intensity (ln)": 6.88}, {"sequence": "TGTTTTATTTATTAAGCACACGCGATTTAAAAAATA [CACACA_site981]", "gcPBM binding intensity (ln)": 6.79}, {"sequence": "TCAAATGTGTAATCTTGTACACATTAAAAGAAAAAA [XGTACX_site8822]", "gcPBM binding intensity (ln)": 6.92}, {"sequence": "TTTGTTCTTTTTGAAGTGCACTGAAATATAACAAAA", "gcPBM binding intensity (ln)": 10.7}, {"sequence": "AAAAAAACACACACATATATATATATATATATATAT [GTGCAC_negctrl_site498]", "gcPBM binding intensity (ln)": 9.79}, {"sequence": "AAGAAAAAGAATAACCTTATTTCTATATACTAATTT [TGCATGCA_negctrl_site477]", "gcPBM binding intensity (ln)": 6.54}, {"sequence": "ATCAAAATTGTCATTACACACCTTTATTTTTATAAT [CACACA_site5071]", "gcPBM binding intensity (ln)": 7.12}, {"sequence": "TCCACTTAACTCAATTGTACAAAAATAAAAATTAAA [XGTACX_site855]", "gcPBM binding intensity (ln)": 7.17}, {"sequence": "ATAATATATATATATATATTATCAAATATATATATA [GTGCAC_negctrl_site346]", "gcPBM binding intensity (ln)": 8.45}, {"sequence": "TGTGTATATCGATAAAGTACATTTGAAAAGTGACTT [XGTACX_site6957]", "gcPBM binding intensity (ln)": 6.88}, {"sequence": "GTAATATGTATCCATACACACATACAGTTTATTTGC [CACACA_site6540]", "gcPBM binding intensity (ln)": 6.9}, {"sequence": "AAAAAAAACGGACACACACACATTCAATATAAAACA [CACACA_site4189]", "gcPBM binding intensity (ln)": 7.45}, {"sequence": "GTATTAATATATAATTGTACTTTTTTTTTTTTTTTT [XGTACX_site4369]", "gcPBM binding intensity (ln)": 7.64}, {"sequence": "AATAATGAATTGAAATGTACATATTTTTATTAATAC [XGTACX_site8899]", "gcPBM binding intensity (ln)": 7.15}, {"sequence": "TTTTTATATTTTACATGTACATAAATATATTATATA [XGTACX_site958]", "gcPBM binding intensity (ln)": 7}, {"sequence": "ATCACCAAATGGGCTATACAACAATGAGAAATGGTA [CACACA_negctrl_site48]", "gcPBM binding intensity (ln)": 6.91}, {"sequence": "TTCACATGAAGAATTAAAATAAAACTAGGAAATTAA [CACACA_negctrl_site1047]", "gcPBM binding intensity (ln)": 6.74}, {"sequence": "ATACGAAGAAATGTTCATTTATTTCGAACATTTAAT [CACACA_negctrl_site1481]", "gcPBM binding intensity (ln)": 6.65}, {"sequence": "TTTTTCATAAAACACACACACAAAAATAATGTGGAA [CACACA_site3687]", "gcPBM binding intensity (ln)": 6.92}, {"sequence": "AATATAATATAATATAGTACGTAAAAATATTATACA [XGTACX_site2170]", "gcPBM binding intensity (ln)": 7.14}, {"sequence": "TTATTATTTGGTTATAGTACATAATATAATATATAT [XGTACX_site6911]", "gcPBM binding intensity (ln)": 7}, {"sequence": "CTATATTTCGTTGGACGTACAAATGTGATAATTAGG [XGTACX_site3232]", "gcPBM binding intensity (ln)": 7.31}, {"sequence": "TATATATATATGTATGCATGTTGTTTTTTATTTAAT [TGCATGCA_site343]", "gcPBM binding intensity (ln)": 9.27}, {"sequence": "TTTCTTTTTTCACGTGCATGCCATTTAAGTATTAAT [TGCATGCA_site651]", "gcPBM binding intensity (ln)": 7.48}, {"sequence": "TTTGTTTGGTTTTGGTGTACTTTTTTTTTTTTTTCT [XGTACX_site2050]", "gcPBM binding intensity (ln)": 7.16}, {"sequence": "AGAATTCAACAATGTTGTACATACACACACACAAAA [XGTACX_site5035]", "gcPBM binding intensity (ln)": 7.41}, {"sequence": "GAATTATAAGAATAAACACACAAGCTTAAAAAAAAA [CACACA_site1204]", "gcPBM binding intensity (ln)": 6.85}, {"sequence": "ACATATGTATAATATGCACACGTCATTTTCCCCTTA [CACACA_site5194]", "gcPBM binding intensity (ln)": 7.12}, {"sequence": "ACTAAACTTATATGTACACACATATAACATTAATTT [CACACA_site2258]", "gcPBM binding intensity (ln)": 7.3}, {"sequence": "ATGTATTTATTTTAACGTACAAGATATTATTATTAT [XGTACX_site4609]", "gcPBM binding intensity (ln)": 7.15}, {"sequence": "AAATTATATATGATGTGTACATAAATATATACACAT [XGTACX_site8761]", "gcPBM binding intensity (ln)": 7.14}, {"sequence": "ATATGGCATATTTGTATTATACATACATATGTATCT [TGCATGCA_negctrl_site562]", "gcPBM binding intensity (ln)": 7.07}, {"sequence": "AAATTATAATATAATACACACATAAAAAAAAAAAAA [CACACA_site7]", "gcPBM binding intensity (ln)": 6.94}, {"sequence": "TTATTATTCAAGAGGAGTACATTATGTGTATAATAT [XGTACX_site4995]", "gcPBM binding intensity (ln)": 7.08}, {"sequence": "TATATTTAGAGAGAGACACACAAAGGGACTTACACA [CACACA_site2545]", "gcPBM binding intensity (ln)": 6.93}, {"sequence": "CTAATTGTGTATACCTGTACATATATATATATATAT [XGTACX_site416]", "gcPBM binding intensity (ln)": 9.45}, {"sequence": "AAAAAAAAAAAGAACACACACAGTGCACATTCGGTG [CACACA_site788]", "gcPBM binding intensity (ln)": 10.3}, {"sequence": "TGTTATTCTACATATACACACAAATAACAATTTAAA [CACACA_site1824]", "gcPBM binding intensity (ln)": 7.22}, {"sequence": "TTAACTTTTTTATATGCACACATAAACAAGGATATA [CACACA_site8932]", "gcPBM binding intensity (ln)": 7.78}, {"sequence": "AATACAAAAAAAGGTACACACATAATATATTTATTA [CACACA_site2628]", "gcPBM binding intensity (ln)": 7.11}, {"sequence": "TTTCCCTCAAATAAAGTGCATTATGATTTTAATTTA", "gcPBM binding intensity (ln)": 8.75}, {"sequence": "TAATTATTTTCGGTACGTACTAATGTATATATAATT [XGTACX_site3895]", "gcPBM binding intensity (ln)": 7.13}, {"sequence": "TAATAATTTTTTTTTTTTTTTTACGAAAATATGATT [GTGCAC_negctrl_site323]", "gcPBM binding intensity (ln)": 6.67}, {"sequence": "ATAATAAGAACTCAGTGTACTATCCTTTGAATTAAC [XGTACX_site8117]", "gcPBM binding intensity (ln)": 6.9}, {"sequence": "AACGTCTTTTTTTTTTTTTTTCTTTTTTTTTTTATT [CACACA_negctrl_site303]", "gcPBM binding intensity (ln)": 6.69}]}]}
